From paper PMC12820563, “FoxP3 forms a head-to-head dimer in vivo and stabilizes its multimerization on adjacent microsatellites”
This is one part of the list.

target: T1, MBP-FoxP1dN (Mus musculus, UniProt P58462 326-579); test: PD-seq (MBP pull-down with sequencing); 20 mM Tris-HCl pH 7.5, 100 mM NaCl, 1.5 mM MgCl2, 0.4 uM protein, 0.1 uM dsDNA library, 30 min, room temperature, amylose pull-down; high values mean tight binding; conditions: protein: recombinant; tags: His6-MBP; chain copies: 2; dsDNA, one strand shown
T1 sequence: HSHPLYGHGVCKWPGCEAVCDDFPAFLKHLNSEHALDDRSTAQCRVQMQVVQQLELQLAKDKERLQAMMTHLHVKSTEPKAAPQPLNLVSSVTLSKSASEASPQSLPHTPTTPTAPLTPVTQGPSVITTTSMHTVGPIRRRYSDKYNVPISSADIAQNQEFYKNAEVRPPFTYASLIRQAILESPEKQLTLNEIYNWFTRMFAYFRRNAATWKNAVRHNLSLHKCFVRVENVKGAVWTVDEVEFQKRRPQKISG
Procedure, shortened: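 E. coli-expressed mouse FoxP3 or FoxP1 fragment, N-terminus removed and tagged with His6-MBP, was used at 0.4 µM against 0.1 µM of a Klenow-filled degenerate double-stranded DNA library. After 30 min at room temperature in Tris pH 7.5 buffer with NaCl and MgCl2, complexes were pulled down on amylose resin and washed three times. Binding is pull-down over input reads-per-million enrichment from pooled replicates of the proteinase K-released, PCR-barcoded, Illumina-sequenced DNA.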

| Sequence | binding signal |
| --- | --- |
| GATGATTGTTCTCCCAGCTGATGAATTACGTCACTCGAGTAAACAAATTTTCCTAATCTTTCTGTTCAAGCGCCATCTAC | 1.08 RPM ratio (pull-down/input) |
| GATGATTGTTCTCCCAGCTGATGAATTCTCTTGTTCGAGTAAACAAATTTTCCTAATCTTTCTGTTCAAGCGCCATCTAC | 0.872 RPM ratio (pull-down/input) |
| GATGATTGTTCTCCCAGCTGATGAATTGCCAAGGTCGAGTAAACAAATTTTCCTAATCTTTCTGTTCAAGCGCCATCTAC | 0.886 RPM ratio (pull-down/input) |
| GATGATTGTTCTCCCAGCTGATGAATTGTTATCTTCGAGTAAACAAATTTTCCTAATCTTTCTGTTCAAGCGCCATCTAC | 1.53 RPM ratio (pull-down/input) |
| GATGATTGTTCTCCCAGCTGATGAATTGGTTGTTTCGAGTAAACAAATTTTCCTAATCTTTCTGTTCAAGCGCCATCTAC | 1.45 RPM ratio (pull-down/input) |
| GATGATTGTTCTCCCAGCTGATGAATTCCTCTACTCGAGTAAACAAATTTTCCTAATCTTTCTGTTCAAGCGCCATCTAC | 0.84 RPM ratio (pull-down/input) |
| GATGATTGTTCTCCCAGCTGATGAATTATTTTGTTCGAGTAAACAAATTTTCCTAATCTTTCTGTTCAAGCGCCATCTAC | 1.32 RPM ratio (pull-down/input) |
| GATGATTGTTCTCCCAGCTGATGAATTTACTGACTCGAGTAAACAAATTTTCCTAATCTTTCTGTTCAAGCGCCATCTAC | 1.13 RPM ratio (pull-down/input) |
| GATGATTGTTCTCCCAGCTGATGAATTTGTTGCGTCGAGTAAACAAATTTTCCTAATCTTTCTGTTCAAGCGCCATCTAC | 1.5 RPM ratio (pull-down/input) |
| GATGATTGTTCTCCCAGCTGATGAATTATAACAATCGAGTAAACAAATTTTCCTAATCTTTCTGTTCAAGCGCCATCTAC | 1.68 RPM ratio (pull-down/input) |
| GATGATTGTTCTCCCAGCTGATGAATTGTTTCGCTCGAGTAAACAAATTTTCCTAATCTTTCTGTTCAAGCGCCATCTAC | 1.18 RPM ratio (pull-down/input) |
| GATGATTGTTCTCCCAGCTGATGAATTAGGGCTGTCGAGTAAACAAATTTTCCTAATCTTTCTGTTCAAGCGCCATCTAC | 0.826 RPM ratio (pull-down/input) |
| GATGATTGTTCTCCCAGCTGATGAATTCTTCAACTCGAGTAAACAAATTTTCCTAATCTTTCTGTTCAAGCGCCATCTAC | 0.835 RPM ratio (pull-down/input) |
| GATGATTGTTCTCCCAGCTGATGAATTAATTCGGTCGAGTAAACAAATTTTCCTAATCTTTCTGTTCAAGCGCCATCTAC | 0.851 RPM ratio (pull-down/input) |
| GATGATTGTTCTCCCAGCTGATGAATTATGCGACTCGAGTAAACAAATTTTCCTAATCTTTCTGTTCAAGCGCCATCTAC | 1.01 RPM ratio (pull-down/input) |
| GATGATTGTTCTCCCAGCTGATGAATTCATTCCTTCGAGTAAACAAATTTTCCTAATCTTTCTGTTCAAGCGCCATCTAC | 0.886 RPM ratio (pull-down/input) |
| GATGATTGTTCTCCCAGCTGATGAATTGCCAAACTCGAGTAAACAAATTTTCCTAATCTTTCTGTTCAAGCGCCATCTAC | 1.02 RPM ratio (pull-down/input) |
| GATGATTGTTCTCCCAGCTGATGAATTGGTGAAATCGAGTAAACAAATTTTCCTAATCTTTCTGTTCAAGCGCCATCTAC | 1.07 RPM ratio (pull-down/input) |
| GATGATTGTTCTCCCAGCTGATGAATTGCTGTTATCGAGTAAACAAATTTTCCTAATCTTTCTGTTCAAGCGCCATCTAC | 1.85 RPM ratio (pull-down/input) |
| GATGATTGTTCTCCCAGCTGATGAATTTACGAAATCGAGTAAACAAATTTTCCTAATCTTTCTGTTCAAGCGCCATCTAC | 1.42 RPM ratio (pull-down/input) |

| Sequence | binding signal |
| --- | --- |
| GATGATTGTTCTCCCAGCTGATGAATTCCTGACTTCGAGTAAACAAATTTTCCTAATCTTTCTGTTCAAGCGCCATCTAC | 0.783 RPM ratio (pull-down/input) |
| GATGATTGTTCTCCCAGCTGATGAATTTACCTGCTCGAGTAAACAAATTTTCCTAATCTTTCTGTTCAAGCGCCATCTAC | 1.08 RPM ratio (pull-down/input) |
| GATGATTGTTCTCCCAGCTGATGAATTACGTGGCTCGAGTAAACAAATTTTCCTAATCTTTCTGTTCAAGCGCCATCTAC | 0.926 RPM ratio (pull-down/input) |
| GATGATTGTTCTCCCAGCTGATGAATTCAGTGCGTCGAGTAAACAAATTTTCCTAATCTTTCTGTTCAAGCGCCATCTAC | 0.952 RPM ratio (pull-down/input) |
| GATGATTGTTCTCCCAGCTGATGAATTAGCTTCGTCGAGTAAACAAATTTTCCTAATCTTTCTGTTCAAGCGCCATCTAC | 0.892 RPM ratio (pull-down/input) |
| GATGATTGTTCTCCCAGCTGATGAATTAAACCCTTCGAGTAAACAAATTTTCCTAATCTTTCTGTTCAAGCGCCATCTAC | 0.938 RPM ratio (pull-down/input) |
| GATGATTGTTCTCCCAGCTGATGAATTTCGAACGTCGAGTAAACAAATTTTCCTAATCTTTCTGTTCAAGCGCCATCTAC | 0.799 RPM ratio (pull-down/input) |
| GATGATTGTTCTCCCAGCTGATGAATTTTTTCTTTCGAGTAAACAAATTTTCCTAATCTTTCTGTTCAAGCGCCATCTAC | 0.834 RPM ratio (pull-down/input) |
| GATGATTGTTCTCCCAGCTGATGAATTCATCGACTCGAGTAAACAAATTTTCCTAATCTTTCTGTTCAAGCGCCATCTAC | 0.841 RPM ratio (pull-down/input) |
| GATGATTGTTCTCCCAGCTGATGAATTATGGGACTCGAGTAAACAAATTTTCCTAATCTTTCTGTTCAAGCGCCATCTAC | 0.921 RPM ratio (pull-down/input) |
| GATGATTGTTCTCCCAGCTGATGAATTCACGTCTTCGAGTAAACAAATTTTCCTAATCTTTCTGTTCAAGCGCCATCTAC | 0.955 RPM ratio (pull-down/input) |
| GATGATTGTTCTCCCAGCTGATGAATTCTCGCTTTCGAGTAAACAAATTTTCCTAATCTTTCTGTTCAAGCGCCATCTAC | 1.04 RPM ratio (pull-down/input) |
| GATGATTGTTCTCCCAGCTGATGAATTTCCTAACTCGAGTAAACAAATTTTCCTAATCTTTCTGTTCAAGCGCCATCTAC | 0.911 RPM ratio (pull-down/input) |
| GATGATTGTTCTCCCAGCTGATGAATTTGACCATTCGAGTAAACAAATTTTCCTAATCTTTCTGTTCAAGCGCCATCTAC | 0.934 RPM ratio (pull-down/input) |
| GATGATTGTTCTCCCAGCTGATGAATTCTAGGGGTCGAGTAAACAAATTTTCCTAATCTTTCTGTTCAAGCGCCATCTAC | 0.74 RPM ratio (pull-down/input) |
| GATGATTGTTCTCCCAGCTGATGAATTTCTTACTTCGAGTAAACAAATTTTCCTAATCTTTCTGTTCAAGCGCCATCTAC | 0.956 RPM ratio (pull-down/input) |
| GATGATTGTTCTCCCAGCTGATGAATTTTAATAATCGAGTAAACAAATTTTCCTAATCTTTCTGTTCAAGCGCCATCTAC | 1.3 RPM ratio (pull-down/input) |
| GATGATTGTTCTCCCAGCTGATGAATTAGGTTGATCGAGTAAACAAATTTTCCTAATCTTTCTGTTCAAGCGCCATCTAC | 0.965 RPM ratio (pull-down/input) |
| GATGATTGTTCTCCCAGCTGATGAATTAACGATTTCGAGTAAACAAATTTTCCTAATCTTTCTGTTCAAGCGCCATCTAC | 0.95 RPM ratio (pull-down/input) |
| GATGATTGTTCTCCCAGCTGATGAATTGCTCAGCTCGAGTAAACAAATTTTCCTAATCTTTCTGTTCAAGCGCCATCTAC | 0.904 RPM ratio (pull-down/input) |
